Laboratory results: the supplement of paper PMC3694890
± gives the uncertainty stated by the source. The list shows a part of the results. Phosphotyrosine is written y.

B1: ERBB3_680/A1 (peptide)
chain: yLERGE
B2: ACTS_171/A1 (peptide)
chain: yALPHA
B3: ERBB4_733/A1 (peptide)
chain: yKGIWV
B4: FER_402/A1 (peptide)
chain: yEEDAR
B5: FGFR1_766/A1 (peptide)
chain: yLDLSM
B6: FES_811/A1 (peptide)
chain: yQELQS
B7: ACTS_190/A1 (peptide)
chain: yLMKIL
B8: FGFR1_463/A1 (peptide)
chain: yELPED
B9: FGFR1_585/A1 (peptide)
chain: yNPSHN
B10: ERBB3_1328/A1 (peptide)
chain: yWHSRL
B11: FGFR1_605/A1 (peptide)
chain: yQVARG
B12: ABL2_718/A1 (peptide)
chain: yGGSFA
B13: FGFR1_730/A1 (peptide)
chain: yMMMRD
B14: FGFR1_280/A1 (peptide)
chain: ySDPQP
B15: FES_713/A1 (peptide)
chain: yAASGG
B16: FES_261/A1 (peptide)
chain: yQGFLR
B17: FGFR2_769/A1 (peptide)
chain: yLDLSQ

Target: GRB2 (endogenous complexes from cell lysate), P62993
Assay: GRB2 complex binding differential signal (pY peptide minus Ala control peptide) (fluorescence intensity units); higher = stronger GRB2 complex binding
Settings: MCF7
Protocol: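 In situ synthesized µParaflo PepArray of 6-mer peptides, each starting with an N-terminal phosphotyrosine (lowercase 'y' = pY) followed by 5 native residues. Peptides are tethered to glass through a long linker. Chips were incubated overnight at 4°C with total cell lysate (1 mg in 1 mL) from MCF10A, MCF7, T47D or MDA-MB-231 cells. Bound endogenous GRB2-containing complexes were detected with rabbit anti-GRB2 and an Alexa647 secondary antibody. Signals are background-subtracted and averaged over replicate spots, then the matched Ala-substituted control peptide signal is subtracted (differential signal).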
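Note: phosphopeptide probes on the chip at 1–4 µM, lysate proteins bound in 20 mM Tris pH 7.0 buffer with 140 mM NaCl, 1% Triton X-100 and 5% glycerol.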

Binder	GRB2 complex binding differential signal
B1	273 ± 330
B2	11500 ± 1800
B3	214 ± 350
B4	858 ± 290
B5	-982 ± 3500
B6	648 ± 300
B7	481 ± 270
B8	2350 ± 2000
B9	-817 ± 1300
B10	8.56 ± 160
B11	4550 ± 830
B12	29.7 ± 880
B13	201 ± 360
B14	3600 ± 330
B15	721 ± 240
B16	883 ± 300
B17	42 ± 240

Same assay, conditions: MCF10A

Binder	GRB2 complex binding differential signal
B1	259 ± 280
B2	4900 ± 1500
B3	203 ± 300
B4	736 ± 230
B5	-43.3 ± 270
B6	569 ± 260
B7	223 ± 190
B8	2030 ± 540
B9	1120 ± 560
B10	11.5 ± 140
B11	2630 ± 330
B12	11.1 ± 280
B13	186 ± 290
B14	2130 ± 560
B15	1170 ± 250
B16	459 ± 180
B17	-206 ± 390

Same assay, conditions: MDA-MB-231

Binder	GRB2 complex binding differential signal
B1	207 ± 290
B2	2600 ± 430
B3	562 ± 280
B4	1090 ± 330
B5	437 ± 340
B6	884 ± 510
B7	378 ± 270
B8	1960 ± 490
B9	301 ± 790
B10	88.1 ± 220
B11	297 ± 300
B12	488 ± 820
B13	338 ± 520
B14	1660 ± 580
B15	694 ± 330
B16	601 ± 260
B17	589 ± 460

Same assay, conditions: T47D

Binder	GRB2 complex binding differential signal
B1	87.4 ± 1100
B2	2820 ± 1300
B3	1870 ± 1600
B4	2480 ± 1500
B5	147 ± 1500
B6	1070 ± 1200
B7	847 ± 2300
B8	1180 ± 1100
B9	-85.2 ± 1100
B10	408 ± 1200
B11	741 ± 1200
B12	2410 ± 1700
B13	1030 ± 1300
B14	1650 ± 1100
B15	1700 ± 1100
B16	2220 ± 1400
B17	-190 ± 880
